Reference: PMC10691697, “A small molecule exerts selective antiviral activity by targeting the human cytomegalovirus nuclear egress complex” (PLOS Pathogens, 2023)

What was measured:
[1] = system: HSV-1 strain KOS; assay type: cell-based, herpes simplex virus 1; conditions: for anti-HSV: number of plaques relative to DMSO vehicle: replicates
Procedure: Standard plaque reduction assays used to assess the antiviral activity of GK1 and GK2 against HSV in HFF cells were performed as described with minor modifications. Briefly, 1x10^5 HFF cells in each well of a 24-well plate were infected with ~ 100 PFU/well of HSV-1 strain KOS. After 2h, the inocula was removed and DMEM containing methylcellulose, 1% DMSO, and various concentrations of GK1 or GK2 was added. After two days, plaques were stained with crystal violet and counted. ED50’s for GK1 or GK2 were calculated as described above.

[2] = system: HCMV expressing GFP (53-F BADGFP); conditions: for anti-HCMV: number of plaques relative to DMSO vehicle: replicates
[3] = system: MCMV M50-M53; assay type: binding; conditions: for normalized FRET signal relative to control without inhibitor: MCMV M50-M53, replicates
[4] = target: T1, UL50_C54S+UL53 (Human cytomegalovirus, UniProt P16794); assay: biochemical; assay type: binding; conditions: replicates, read-out: normalized FRET signal relative to control without inhibitor
T1 construct: GST (N, cleaved yes); 13-residue glycine-serine linker […]; made in house; host or cells: E. coli BL21 (DE3) RIPL

[5] = in vitro; assay type: cell-based, human; conditions: human, read-out: CC50, cytotoxicity on HFF
Procedure: (§1) Cytotoxicities of various compounds were determined using a WST-1 assay that measures metabolic activity (Roche), and CC50’s were calculated as described previously.

[6] = system: HFF cells; assay: in vitro; assay type: cell-based, human; conditions: replicates
Procedure: as §1

[7] = system: pp28 expression; design: method as in PMID 28100301; conditions: 1 μM; cited from earlier work
[8] = target: T2, HCMV UL50-UL53 (Human cytomegalovirus, UniProt P16794); assay: biochemical; assay type: binding
T2 construct: GST (N, cleaved yes); 13-residue glycine-serine linker […]; made in house; host or cells: E. coli BL21 (DE3) RIPL

[9] = target: T3, UL50_C79S+UL53 (Human cytomegalovirus, UniProt P16794); assay: biochemical; assay type: binding; conditions: replicates, read-out: normalized FRET signal relative to control without inhibitor
T3 construct: GST (N, cleaved yes); 13-residue glycine-serine linker […]; made in house; host or cells: E. coli BL21 (DE3) RIPL

[10] = system: co-localization of UL53 with UL50 at the nuclear rim; assay type: cell-based; conditions: 10 μM, WT-infected cells, MOI 1, 72 hpi
[11] = target: T4, HSV-1 P30-UL42 (Human herpesvirus 1, UniProt P10226); assay: biochemical; assay type: binding
T4 construct: containing UL42 residues 1–340; GST (N); glycine-serine linker of the modified pGEX6p plasmid (presence inferred) (N); made in house; host or cells: E. coli (UL42: pLysS BL21)
T4 sequence (P10226 1-340): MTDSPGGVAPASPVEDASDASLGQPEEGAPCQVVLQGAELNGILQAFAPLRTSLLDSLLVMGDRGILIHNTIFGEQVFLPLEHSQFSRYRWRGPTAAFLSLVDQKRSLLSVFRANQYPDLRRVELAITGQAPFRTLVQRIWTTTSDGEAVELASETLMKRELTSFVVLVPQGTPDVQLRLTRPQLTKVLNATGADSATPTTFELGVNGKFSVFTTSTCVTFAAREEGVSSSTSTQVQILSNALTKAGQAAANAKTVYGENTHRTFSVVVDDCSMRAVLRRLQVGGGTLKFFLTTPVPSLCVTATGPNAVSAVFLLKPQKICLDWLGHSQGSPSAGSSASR

Question: With C=CC(=O)Nc1cccc(Oc2ccnc3[nH]ccc23)c1 [GK2] as the molecule, how does the “anti-HSV: number of plaques relative to DMSO vehicle” value ([1]; 0.40 μM compound, 2 dpi) read?
Answer: 100.0000 and 85.0000 and 93.0000

Question: And the “anti-HSV: number of plaques relative to DMSO vehicle” value ([1]; 0.80 μM compound, 2 dpi)?
Answer: 100.0000 and 87.0000 and 80.0000

Question: And the “anti-HSV: number of plaques relative to DMSO vehicle” value ([1]; 1.60 μM compound, 2 dpi)?
Answer: 95.0000 and 85.0000 and 80.0000

Question: What about the “ED50, anti-HSV-1” value ([1]; HFF, standard plaque reduction assay, 2 dpi) of the same molecule?
Answer: 12 µM

Question: What about the “cytotoxic potency relative to anti-HSV-1 potency” value ([1]; two-day WST-1 vs HSV-1 plaque reduction) of the same molecule?
Answer: 3- to 4 fold

Question: What about the “anti-HCMV: number of plaques relative to DMSO vehicle” value ([2]; 0.20 μM compound, 6 dpi) of the same molecule?
Answer: 100.0000

Question: And the “anti-HCMV: number of plaques relative to DMSO vehicle” value ([2]; 0.40 μM compound, 6 dpi)?
Answer: 95.0000 and 84.0000 and 72.0000

Question: And the “anti-HCMV: number of plaques relative to DMSO vehicle” value ([2]; 0.80 μM compound, 6 dpi)?
Answer: 85.0000 and 82.0000 and 79.0000

Question: And the “anti-HCMV: number of plaques relative to DMSO vehicle” value ([2]; 1.60 μM compound, 6 dpi)?
Answer: 75.0000 and 63.0000 and 60.0000

Question: And the “ED50, HCMV plaque formation” value ([2]; HFF, automated plaque reduction assay, 6 dpi)?
Answer: 4 µM

Question: And the CC50/ED50 ([2]; anti-HCMV ED50 (APRA) and parallel WST-1 CC50)?
Answer: 5.4

Question: And the “inhibition in HTRF assay for interactions of mouse cytomegalovirus NEC subunits” value [3]?
Answer: did not show inhibition

Question: What about the “normalized FRET signal relative to control without inhibitor” value ([3]; 0.20 μM compound) of the same molecule?
Answer: 99.0000 (2×) and 97.0000

Question: And the “normalized FRET signal relative to control without inhibitor” value ([3]; 1.56 μM compound)?
Answer: 98.0000

Question: And the “normalized FRET signal relative to control without inhibitor” value ([3]; 3.13 μM compound)?
Answer: 99.0000 and 97.0000 (2×)

Question: What about the “normalized FRET signal relative to control without inhibitor” value ([3]; 6.25 μM compound) of the same molecule?
Answer: 98.0000

Question: What about the “normalized FRET signal relative to control without inhibitor” value ([3]; 50.00 μM compound) of the same molecule?
Answer: 100.0000 and 96.0000 and 97.0000

Question: What about the remaining activity at 3.13 µM ([4]; 3.13 μM compound) of the same molecule?
Answer: 98%

Question: And the remaining activity at 6.25 µM ([4]; 6.25 μM compound)?
Answer: 92%

Question: What about the CC50 ([5]; WST-1, six days, in parallel with automated plaque reduction assay) of the same molecule?
Answer: 21 µM

Question: What about the CC50 ([5]; WST-1, two days, in parallel with HSV-1 plaque reduction assay) of the same molecule?
Answer: 36 µM

Question: And the “cytotoxicity on HFF: WST-1 absorbance relative to DMSO vehicle” value ([6]; 0.20 μM compound, 6 days)?
Answer: 95.0000 and 96.0000 and 90.0000

Question: And the “cytotoxicity on HFF: WST-1 absorbance relative to DMSO vehicle” value ([6]; 0.40 μM compound, 2 days)?
Answer: 99.0000 and 100.0000 (2×)

Question: What about the “cytotoxicity on HFF: WST-1 absorbance relative to DMSO vehicle” value ([6]; 0.40 μM compound, 6 days) of the same molecule?
Answer: 94.0000 and 93.0000 and 97.0000

Question: What about the “cytotoxicity on HFF: WST-1 absorbance relative to DMSO vehicle” value ([6]; 0.80 μM compound, 2 days) of the same molecule?
Answer: 100.0000 (2×) and 94.0000

Question: What about the “cytotoxicity on HFF: WST-1 absorbance relative to DMSO vehicle” value ([6]; 0.80 μM compound, 6 days) of the same molecule?
Answer: 84.0000 and 95.0000 and 100.0000

Question: What about the “cytotoxicity on HFF: WST-1 absorbance relative to DMSO vehicle” value ([6]; 1.60 μM compound, 2 days) of the same molecule?
Answer: 100.0000 and 84.0000 and 95.0000

Question: What about the “cytotoxicity on HFF: WST-1 absorbance relative to DMSO vehicle” value ([6]; 1.60 μM compound, 6 days) of the same molecule?
Answer: 85.0000 and 100.0000 (2×)

Question: What about the “cytotoxicity on HFF: WST-1 absorbance relative to DMSO vehicle” value ([6]; 50.00 μM compound, 2 days) of the same molecule?
Answer: 45.0000 and 35.0000 and 40.0000

Question: And the “inhibition of pp28 expression in a screen” value [7]?
Answer: did not score as positive

Question: And the “reduction of NEC subunit interactions in the HTRF assay” value ([8]; 10 μM)?
Answer: ~ 2.5 fold

Question: What about the remaining activity at 0.2 µM ([8]; WT UL50-UL53, 0.20 μM compound, replicates, read-out: normalized FRET signal relative to control without inhibitor) of the same molecule?
Answer: 91%

Question: What about the “normalized FRET signal relative to control without inhibitor” value ([8]; WT UL50-UL53, 3.13 μM compound, replicates) of the same molecule?
Answer: 92.0000

Question: And the remaining activity at 3.13 µM ([9]; 3.13 μM compound)?
Answer: 100%

Question: And the remaining activity at 6.25 µM ([9]; 6.25 μM compound)?
Answer: 93%

Question: What about the remaining activity at 50 µM ([9]; 50.00 μM compound) of the same molecule?
Answer: 50%

Question: And the “subset of cells with substantial nucleoplasmic UL53 staining” value [10]?
Answer: ~ 20%

Question: What about the “normalized FRET signal relative to control without inhibitor” value ([11]; HSV1 P30-UL42, 1.56 μM compound, replicates) of the same molecule?
Answer: 100.0000

Question: What about the remaining activity at 1.56 µM ([11]; HSV1 P30-UL42, 1.56 μM compound, replicates, read-out: normalized FRET signal relative to control without inhibitor) of the same molecule?
Answer: 99%

Question: And the remaining activity at 3.13 µM ([11]; HSV1 P30-UL42, 3.13 μM compound, replicates, read-out: normalized FRET signal relative to control without inhibitor)?
Answer: 99%

Question: What about the remaining activity at 6.25 µM ([11]; HSV1 P30-UL42, 6.25 μM compound, replicates, read-out: normalized FRET signal relative to control without inhibitor) of the same molecule?
Answer: 106%

Question: What about the remaining activity at 50 µM ([11]; HSV1 P30-UL42, 50.00 μM compound, replicates, read-out: normalized FRET signal relative to control without inhibitor) of the same molecule?
Answer: 89%

Question: What about the remaining activity at 25 µM ([11]; HSV1 P30-UL42, […] compound, replicates, read-out: normalized FRET signal relative to control without inhibitor) of the same molecule?
Answer: 96%

Question: And the “inhibition in the HSV-1 P30-UL42 counterscreen assay” value ([11]; all concentrations tested (up to 50 μM))?
Answer: did not show meaningful inhibition

Values joined by “and” are separate entries in the source; they are usually repeats but may differ in a detail not shown here. Equal entries are not always repeated. Where two headings read alike, the source gives them in different places.
